Source: article PMC12040169 (PLOS Biology, 2025)
This is one part of the list.

Each compound was assayed on T1, C. trachomatis L2/434/Bu expressing GFP (CTL2-GFP). Details: total inclusion area; 28.5 h, 10 µM; inhibitor.
T1 construct: L2/434/Bu GFP intracellular growth in HeLa cells
Design: species or system HeLa; C. trachomatis total inclusion area by high-content imaging, normalised to DMSO
How it was run: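 After bulk GFP and resorufin fluorescence reads, cells were fixed, stained with Hoechst and imaged by high-content microscopy. Inclusion area and number (GFP) stood in for chlamydial growth, nuclei count (Hoechst) for host cell viability. MICs were derived as for the bulk readout.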

| SMILES | % of control remaining |
| --- | --- |
| COc1ccc(OC(=O)COc2nc3c(C)cc(C)nc3[nH]2)cc1 [CBK269290] | 82.8903 |
| COc1ncc(-c2ccc(N3CCN(c4ccncc4)CC3)nc2)c(OC)n1 [CBK036848] | 80.7664 |
| CCNC(=O)N1CC2(CCN(C/C=C/c3ccccc3)CC2)c2ccccc21 [CBK144596T] | 91.2823 |
| O=C1CSC2(C(=O)Nc3ccccc32)N1c1ccc2ccccc2c1 (stereo not shown) [CBK093461] | 85.4809 |
| CCn1cc(CN(C)C(=S)Nc2cccc(C(C)=O)c2)c(C)n1 [CBK267040] | 121.529 |
| COc1ccc(C2(C(=O)NCc3ccncc3)CCOCC2)cc1 [CBK287991] | 100.345 |
| O=C(C1CCCC1)N1CCC(n2c(=O)oc3ccccc32)CC1 [CBK284349] | 59.0143 |
| CCn1ccnc1CN1CCCC(CCc2ccccc2F)C1 (stereo not shown) [CBK307173] | 63.3017 |
| CCC(C)NC(=O)C(Cc1ccc([N+](=O)[O-])cc1)N1C(=O)c2ccccc2C1=O (stereo not shown) [CBK261278] | 75.6375 |
| CN(C)CCC(O)(c1ccccc1)c1cc2c(cc1Cl)CCC2 (stereo not shown) [CBK010000C] | 21.5939 |
| O=C(Oc1ccccc1)N1CCC(n2c(=O)[nH]c3ccccc32)CC1 [CBK149865] | 100.838 |
| S=C(Nc1nc2c(s1)CCCC2)NC1CC1 [CBK288425] | 99.473 |
| COc1ccc(OCCN2CCc3ccccc3C2)cc1 [CBK126403] | 91.3932 |
| CCCCC(c1ccc(Cl)cc1)N(CCN(C)C)c1ccccn1 (stereo not shown) [CBK012315F] | 68.2276 |
| Cc1ccc(N(CC(=O)NCC2CCCO2)S(=O)(=O)c2ccc(Cl)cc2)cc1 (stereo not shown) [CBK269039] | 96.0001 |
| CC(=O)NS(=O)(=O)c1ccc(-c2ccc(/C=C(/C#N)c3nc4ccc(C)cc4[nH]3)o2)cc1 [CBK264771] | 91.1283 |
| CCn1cc(C(=O)NN)c(=O)c2cc(F)c(NN)cc21 [CBK262735] | 99.8302 |
| O=C(CCCN1C(=O)c2ccccc2C1=O)Nc1ccc(C(=O)O)cc1 [CBK287043] | 90.9383 |
| COc1ccc(NC(=O)CSc2nnc(C(O)c3ccccc3)n2C)cc1 (stereo not shown) [CBK266053] | 109.801 |
| Cc1nccn1C1CCCN(C(C)C(=O)NC2(C#N)CCCCC2)C1 (stereo not shown) [CBK304194] | 78.5482 |
| CC(=O)c1ccc(S(=O)(=O)NCc2ccc(C(F)(F)F)cc2)cc1 [CBK044314] | 98.3226 |
| NC(=O)CCC(=O)N1CCC2(C/C=C/CCOc3ccccc3C(=O)NCCCNC2=O)CC1 [CBK292059] | 90.1569 |
| CCNC(=S)N1CCN(C(=O)c2cccc(OC)c2)CC1 [CBK154778] | 116.336 |
| CC1=NN(c2ccccc2)C(=O)/C1=C\c1cn(CCC(=O)O)nc1-c1cc2ccccc2o1 [CBK265252] | 125.378 |
| CCOC(=O)CNS(=O)(=O)c1cc(Cl)sc1Cl [CBK034431] | 112.606 |
| Cc1ccccc1CNC(=O)CN(c1cccc(C(F)(F)F)c1)S(=O)(=O)c1ccccc1 [CBK264047] | 101.986 |
| Cc1ccc2cc(CN(Cc3ccc4c(c3)OCO4)Cc3nnnn3Cc3ccco3)c(=O)[nH]c2c1 [CBK108949] | 111.729 |

| SMILES | % of control remaining |
| --- | --- |
| O=C(Cc1cc(F)cc(F)c1F)Nc1cccc2[nH]ccc12 [CBK159650] | 93.0641 |
| Cc1nc2ccccc2c(=O)n1CCC(=O)N1CCc2sccc2C1c1ccco1 (stereo not shown) [CBK285706] | 93.549 |
| c1cncc(CCOc2nccnc2N2CCNCC2)c1 [CBK014992] | 66.0002 |
| CCOc1ccc(-c2ncncc2-c2ccccc2)c(O)c1 [CBK288111] | 94.3523 |
| Cc1n[nH]c(=O)c2c(C)noc12 [CBK001281] | 87.6732 |
| O=C(Nc1nnc(-c2ccccc2)o1)C1COc2ccccc2O1 (stereo not shown) [CBK287596] | 117.675 |
| CC(C)C(=O)Nc1ccc2ccc(-c3ccc(C(C)(C)C)cc3)nc2n1 [CBK073669] | 83.8694 |
| CNS(=O)(=O)c1ccc(C)c(NC(C)=O)c1C [CBK034426] | 78.5333 |
| CN1CC(C(=O)N2CCC(c3cc4ccccc4cn3)CC2)CC1=O (stereo not shown) [CBK284870] | 92.7115 |
| C=CCn1c(SCC(=O)Nc2sc3c(c2C#N)CCC3)nc2scc(-c3ccccc3)c2c1=O [CBK264477] | 104.831 |
| OC(COc1cccc2ccccc12)CN1CCN(C(c2ccccc2)c2ccccc2)CC1 (stereo not shown) [CBK007591] | 88.8081 |
| Cc1cc(C)c(S(=O)(=O)NCCN2CCN(S(=O)(=O)c3c(C)cc(C)cc3C)CC2)c(C)c1 [CBK265842] | 77.9157 |
| CC(C(=O)N1CCC(c2nn(C)c3ncccc23)CC1)c1ccccc1 (stereo not shown) [CBK282166] | 90.0248 |
| COc1ccc(CN2CC[C@H]3[C@@H](C2)[C@H](c2ccsc2)CN3C(=O)c2ccccc2)cc1 [CBK285614] | 66.5223 |
| COCCNc1nc(-c2cccs2)cn2ccnc12 [CBK066408] | 102.189 |
| Cc1cccc(C2NS(=O)(=O)NC2=N)c1 (stereo not shown) [CBK263868] | 105.492 |
| O=C(OCc1ccccc1)N1CCC(c2nc3ccc(Br)cc3[nH]2)CC1 [CBK153849] | 109.971 |
| Cc1cc2c(cc1C)NC(CC(=O)Nc1ccc(N(C)C)cc1)C(=O)N2 (stereo not shown) [CBK265595] | 97.2984 |
| O=C(Nc1cccc(F)c1C(=O)Nc1ccc(F)cc1F)c1cccs1 [CBK066849] | 97.1342 |
| c1ccc(-c2n[nH]cc2-c2cncn2CCCN2CCCCC2)cc1 [CBK281464] | 103.193 |
| O=c1n(-c2ccc(OC(F)(F)F)cc2)ccn1S(=O)(=O)c1ccc(Cl)c(Cl)c1 [CBK106656] | 88.2743 |
| CCOCCCNC(=O)c1ncoc1-c1ccc(F)cc1 [CBK282353] | 69.4558 |
| N#Cc1c(Oc2cccc(Cl)c2Cl)cccc1C(F)(F)F [CBK002592] | 84.5691 |
| O=C(O)c1ccc(-c2ccc(/C=C/c3[nH]c(=O)[nH]c(=O)c3[N+](=O)[O-])o2)cc1Cl [CBK267139] | 124.874 |
| CN1CCN(NC(=O)C23CCC(C)(C(=O)O2)C3(C)C)CC1 (stereo not shown) [CBK268285] | 100.193 |
| CC(=O)Nc1ccc(CN(C)c2c(C)nc3c(OCc4ccc(C(F)(F)F)cc4)cccn23)cc1 [CBK147380] | 84.0982 |
| O=C(CN1C(=O)C2C3C=CC(C3)C2C1=O)NCc1ccco1 (stereo not shown) [CBK265116] | 100.857 |

| SMILES | % of control remaining |
| --- | --- |
| Cc1nnc(SCC(=O)N2CCCN(c3ccc(F)cc3)CC2)s1 [CBK306908] | 43.557 |
| O=C(CSc1nnc(-c2ccccc2)n1-c1ccccc1)N/N=C/c1cccc2cccnc12 [CBK262863] | 97.8396 |
| CN(C)CCN(C)C(=O)c1cc(Br)cnc1N(C)S(C)(=O)=O [CBK076476] | 76.835 |
| Cc1ccc(OC(C)C(=O)Nc2ccccc2C(=O)N2CCN(C)CC2)cc1 (stereo not shown) [CBK269802] | 84.068 |
| Clc1ccc(CN2CCC(Oc3cncc(OCc4cccnc4)n3)C2)cc1Cl (stereo not shown) [CBK084448] | 93.8455 |
| Cc1ncsc1C(=O)N1CCC[C@H](C(=O)c2cccs2)C1 [CBK284260] | 65.7616 |
| Cc1ccc(OCC(=O)Nc2sc(C)c(C)c2C#N)c([N+](=O)[O-])c1 [CBK268162] | 125.949 |
| O=C(O)c1ccc(CCN2CCCC2)nc1 [CBK034220] | 96.856 |
| CC(Cn1cccn1)NS(=O)(=O)c1ccc(N2CCCC2=O)cc1 (stereo not shown) [CBK305606] | 38.5503 |
| Cc1cc2oc(C(=O)Nc3sc4c(c3C#N)CCCC4)c(C)c2cc1C [CBK266301] | 117.766 |
| CCC(NC(=O)CCOC)c1cn2cccnc2n1 (stereo not shown) [CBK306560] | 67.4374 |
| Cc1noc(C)c1CC(=O)NC(CN1CCCCC1)c1ccccc1 (stereo not shown) [CBK281507] | 88.15 |
| CCCOc1ccc(C2(CCCCN3CCCC3)C(=O)Oc3ccc(C(C)(C)C)cc32)cc1 (stereo not shown) [CBK017655C] | 5.005 |
| CC(NC(=O)C1CC=CCC1C(=O)O)C1CC2CCC1C2 (stereo not shown) [CBK027112] | 71.0008 |
| CS(=O)(=O)c1ccc(Cn2ccnc(OC3CCN(C(=O)c4cccc(C#N)c4)CC3)c2=O)cc1 [CBK161810] | 91.8923 |
| COc1ccc(C2CC(c3cccc(Br)c3)Nc3ncnn32)cc1OC (stereo not shown) [CBK294474] | 101.06 |
| CC(C)(C)OC(=O)NCc1ccc(-c2ccc(Nc3cccnc3)nc2)cc1 [CBK037804] | 111.562 |
| Cc1ncsc1CCOc1cccc(C(F)(F)F)n1 [CBK115794] | 82.8953 |
| COc1ccccc1CN1CCCC(c2nc(C)n3ccccc23)C1 (stereo not shown) [CBK283026] | 86.8977 |
| CN(C)C(=O)c1ccc(-c2cnc(N)c(-c3ccc(O)cc3)n2)cc1 [CBK116686] | 89.5092 |
| COC[C@@H]1CCCN1S(=O)(=O)c1ccc(C(C)C)cc1 [CBK200045] | 133.564 |
| CC(=O)N/C(=C/c1ccccc1)C(=O)NCCC(=O)O [CBK264046] | 84.1733 |
| Oc1c(Br)cc2oc3c(c2c1CNc1ccccc1)CCCC3 [CBK160397] | 86.3152 |
| O=S(=O)(NCc1cccnc1)c1ccc(Cl)c(Cl)c1Cl [CBK264032] | 108.636 |
| Cc1ccc(N2CCCC2=O)cc1S(=O)(=O)NC(c1ccccc1)c1ccccc1 [CBK286348] | 81.7958 |
